Common to all, as to experiment: Viability of human cancer cell lines after 72 h of drug (GDSC screen)
Compound in one experiment: C=CC(=O)Nc1cc(-n2c(=O)ccc3cnc4ccc(-c5ccc(NS(C)(=O)=O)cc5)cc4c32)ccc1C [BMX-IN-1 (QL-XII-61)]
As to conditions: top dose 10 µM; top dose inferred. How it is done: (§1)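 Human cancer cell lines in 384-well plates, medium with 10% serum, drug for 72 h over a 256-fold dose range (nine 2-fold or five 4-fold steps up to the top dose). Adherent lines were fixed and stained with the nucleic acid dye Syto60, suspension lines read with resazurin; signal relative to control wells, capped at 0 and 100%. One two-parameter sigmoid per drug and line, fitted in a mixed model over all curves with the slope shared within a line.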

Compound in another experiment: C=CCNC1=C2C[C@@H](C)C[C@H](OC)[C@H](O)[C@@H](C)/C=C(\C)[C@H](OC(N)=O)[C@@H](OC)/C=C\C=C(/C)C(=O)NC(=CC1=O)C2=O [17-AAG]
The following applies: top dose 1 µM. The protocol:
as §1

Compound in the next experiment: CCc1cc(-c2n[nH]c(C)c2-c2ccc3c(c2)OCCO3)c(O)cc1O [CCT018159]
The following applies: top dose 10 µM; top dose inferred. The protocol:
as §1

Compound in a further experiment: CN(C)Cc1cccc(N=C(c2ccccc2)c2c(O)[nH]c3cc(C(=O)N(C)C)ccc23)c1 [BIX02189]
As to conditions: top dose 20 µM; top dose inferred. The protocol: as §1

Compound in another experiment: COC(=O)CNC(=O)C(=O)OC [Dimethyloxalylglycine]
The following applies: top dose 4000 µM; top dose inferred. The protocol:
as §1

Compound in another experiment: COc1cccc2c1C(=O)c1c(O)c3c(c(O)c1C2=O)C[C@@](O)(C(=O)CO)C[C@@H]3O[C@H]1C[C@H](N)[C@H](O)[C@H](C)O1 [Doxorubicin]
The following applies: top dose 1.024 µM. The protocol: as §1

Compound in another experiment: COc1cccc2cc(-c3nc([C@H]4CC[C@H](C(=O)O)CC4)n4ncnc(N)c34)[nH]c12 [OSI-027]
The following applies: top dose 20 µM. How it is done:
as §1

Compound in a further experiment: CS(=O)(=O)c1ccc(C(=O)Nc2ccc(Cl)c(-c3ccccn3)c2)c(Cl)c1 [Vismodegib]
The following applies: top dose 10 µM; top dose inferred. The protocol:
as §1

Compound in a further experiment: Cc1cnc(Nc2ccc(F)cc2Cl)nc1-c1c[nH]c(C(=O)N[C@H](CO)c2cccc(Cl)c2)c1 [VX-11e]
The following applies: top dose 5.12 µM; top dose inferred. The protocol: as §1

Compound in another experiment: Cc1cnc(Nc2ccc(OCCN3CCCC3)cc2)nc1Nc1cccc(S(=O)(=O)NC(C)(C)C)c1 [TG101348]
As to conditions: top dose 10.24 µM. The protocol: as §1

Compound in the next experiment: O=C(c1ccc(C(=O)N2CCC(N3CCCC3)CC2)c(Nc2ccccc2)c1)N1CCC(N2CCCC2)CC1 [UNC1215]
As to conditions: top dose 1 µM; top dose inferred. The protocol: as §1

pIC50: −log10 of the molar value. The IC50 comes from the fitted curve, where viability falls to half of the control; fits outside the tested doses are given as limits. For AUC the same curve is integrated over the 256-fold range of doses and scaled to a fraction; it is 1 without any effect and falls as sensitivity rises. For some assays here: Any top dose called inferred was calculated from the reported fits.

Regarding PANC-02-03 (pancreas, adherent), the AUC was 0.962 with BMX-IN-1 (QL-XII-61); 0.484 with 17-AAG; 0.869 in the experiment with CCT018159; 0.839 in the experiment with BIX02189; 0.483 with Dimethyloxalylglycine; 0.747 with Doxorubicin. The AUC is 0.893 with OSI-027; 0.982 with Vismodegib; 0.661 with VX-11e; 0.885 in the experiment with TG101348; 0.981 with UNC1215. For the same cell line, the pIC50 – broadly, −log10 of the IC50, conventionally taken in molar units – with BMX-IN-1 (QL-XII-61) was under 5.00; with 17-AAG it was 7.25; with CCT018159 it was under 5.00; in the experiment with BIX02189, 4.75; with Dimethyloxalylglycine it was 3.65; in the experiment with Doxorubicin, 6.41. In addition, the pIC50 is under 4.70 with OSI-027; under 5.00 with Vismodegib; 6.01 with VX-11e; under 4.99 in the experiment with TG101348; under 6.00 with UNC1215.

As for HuO9 (osteosarcoma, adherent), the AUC amounted to 0.97 in the experiment with BMX-IN-1 (QL-XII-61); 0.547 with 17-AAG; 0.764 with CCT018159; 0.969 in the experiment with BIX02189; 0.627 in the experiment with Dimethyloxalylglycine; 0.92 with Doxorubicin. The AUC was found to be 0.578 with OSI-027; 0.952 in the experiment with Vismodegib; 0.984 in the experiment with VX-11e; 0.592 with TG101348; 0.982 with UNC1215. For the same cell line, the pIC50 in the experiment with BMX-IN-1 (QL-XII-61) was under 5.00; with 17-AAG, 7.07; with BIX02189 it was under 4.70; with Dimethyloxalylglycine, 3.24; with Doxorubicin, under 5.99; with OSI-027 it was 5.68. Besides, the pIC50 was under 5.00 with Vismodegib, under 5.29 with VX-11e, 5.93 with TG101348 and under 6.00 in the experiment with UNC1215.

As for TMK-1 (stomach, adherent), the AUC was determined as 0.908 with BMX-IN-1 (QL-XII-61); 0.496 with 17-AAG; 0.909 with CCT018159; 0.977 with BIX02189; 0.467 with Dimethyloxalylglycine; 0.614 with Doxorubicin. In addition, the AUC with OSI-027 was 0.855; with Vismodegib, 0.939; with VX-11e, 0.964; with TG101348, 0.931; in the experiment with UNC1215 it was 0.984. The pIC50 with BMX-IN-1 (QL-XII-61) is under 5.00; in the experiment with 17-AAG it was 7.22; with CCT018159 it was under 5.00; with BIX02189, under 4.70; in the experiment with Dimethyloxalylglycine, 3.69; in the experiment with Doxorubicin, 6.87. Moreover, the pIC50 was 4.76 in the experiment with OSI-027; under 5.00 with Vismodegib; under 5.29 with VX-11e; under 4.99 in the experiment with TG101348; under 6.00 with UNC1215.

As to OCI-LY-19 (B-cell lymphoma, suspension), the AUC with BMX-IN-1 (QL-XII-61) turned out to be 0.877; with 17-AAG, 0.96; in the experiment with CCT018159, 0.914; in the experiment with BIX02189, 0.606; with Dimethyloxalylglycine, 0.429; with Doxorubicin it was 0.159. Further, the AUC in the experiment with OSI-027 turned out to be 0.059; with Vismodegib it was 0.985; in the experiment with VX-11e, 0.762; in the experiment with TG101348 it was 0.414; in the experiment with UNC1215, 0.987. Moreover, the negative-log IC50 (pIC50) in the experiment with BMX-IN-1 (QL-XII-61) was 5.06; in the experiment with 17-AAG, under 6.00; with CCT018159, under 5.00; in the experiment with BIX02189, 5.62; with Dimethyloxalylglycine it was 3.79; with Doxorubicin, 8.19. Moreover, the pIC50 with OSI-027 was over 7.11; in the experiment with Vismodegib, under 5.00; with VX-11e, 5.77; with TG101348 it was 6.42; with UNC1215 it was under 6.00.

For LB831-BLC (bladder, adherent), the AUC was found to be 0.979 in the experiment with BMX-IN-1 (QL-XII-61); 0.639 with 17-AAG; 0.962 with CCT018159; 0.985 with BIX02189; 0.639 with Dimethyloxalylglycine; 0.707 with Doxorubicin. Moreover, the AUC came out at 0.757 in the experiment with OSI-027; 0.986 with Vismodegib; 0.981 with VX-11e; 0.905 with TG101348; 0.986 with UNC1215. In addition, the pIC50 was under 5.00 with BMX-IN-1 (QL-XII-61); 6.82 with 17-AAG; under 5.00 in the experiment with CCT018159; under 4.70 in the experiment with BIX02189; 3.21 in the experiment with Dimethyloxalylglycine; 6.61 with Doxorubicin. Also, the pIC50 is 5.15 with OSI-027; under 5.00 with Vismodegib; under 5.29 with VX-11e; under 4.99 with TG101348; under 6.00 with UNC1215.

Regarding HCC1395 (breast, adherent), the AUC turned out to be 0.968 in the experiment with BMX-IN-1 (QL-XII-61); 0.904 with 17-AAG; 0.972 in the experiment with CCT018159; 0.928 in the experiment with BIX02189; 0.842 with Dimethyloxalylglycine; 0.924 with Doxorubicin. The AUC with OSI-027 was 0.94; with Vismodegib, 0.983; in the experiment with VX-11e, 0.98; with TG101348, 0.913; with UNC1215, 0.983. Also, the pIC50 is under 5.00 in the experiment with BMX-IN-1 (QL-XII-61); under 6.00 with 17-AAG; under 5.00 in the experiment with CCT018159; under 4.70 with BIX02189; 2.43 with Dimethyloxalylglycine; under 5.99 with Doxorubicin. Further, the pIC50 with OSI-027 is under 4.70; in the experiment with Vismodegib, under 5.00; in the experiment with VX-11e, under 5.29; with TG101348, under 4.99; with UNC1215, under 6.00.

These data come from the supplement of paper PMC4967469.
